In the supplement of paper PMC3724861:
The other results are listed elsewhere or left out.

Tested on: T1, Caupolican (Caup) homeodomain DNA-binding domain
T1 sequence: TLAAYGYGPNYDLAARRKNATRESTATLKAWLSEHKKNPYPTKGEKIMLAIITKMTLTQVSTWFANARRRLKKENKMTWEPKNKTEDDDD
Assay: PBM E-score (8-mer, recovered from the published 9-mer minima) (E-score (dimensionless, -0.5 to 0.5)); Drosophila protein; higher = stronger relative binding preference, active = 0.31 or more
Summary of the method: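 An enrichment score, with higher meaning stronger, expresses relative binding preference for each short DNA word. The protein used was Caup's homeodomain DNA-binding domain (residues 214-303), produced by in vitro transcription and translation and tested at 100 nM on custom-designed protein binding microarrays. The 8-mer values were recovered from published 9-mer scores, each equal to the lower of its two constituent 8-mer scores.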

Row | Sequence | PBM E-score
1 | ATCCGATA | inactive: 0.124
2 | GGGTATCA | inactive: -0.0054
3 | AGAGGACT | inactive: -0.13
4 | AGGTTTAC | inactive: 0.0847
5 | ACTGGAGA | inactive: -0.0781
6 | ATCACAAG | inactive: 0.198
7 | ATGCGCGA | inactive: -0.0858
8 | TCGATCCA | inactive: 0.01
9 | ATGCTTGA | inactive: 0.109
10 | AAAGACCC | inactive: -0.122
11 | ATCAGCAA | inactive: 0.0179
12 | AATGCCGG | inactive: -0.143
13 | TAATTAGA | inactive: 0.1
14 | AAGAAACC | inactive: 0.0364
15 | GTCAGCAA | inactive: 0.0474
16 | ACCATCGA | ≥ 0.0724
17 | AGCCATTA | inactive: 0.00576
18 | TGACATCA | active: ≥ 0.333
19 | ACACGTTC | inactive: 0.209
20 | ACGGCCGG | inactive: -0.145
21 | ACATTTGA | inactive: 0.231
22 | AATCTTGC | inactive: 0.0894
23 | TAAGCGAA | inactive: -0.00816
24 | CCTGGAGC | inactive: -0.159
25 | ACTATTAC | inactive: 0.195

Row | Sequence | PBM E-score
26 | TATAACCA | ≥ 0.167
27 | CTAAAGTC | inactive: -0.0578
28 | CTACATAA | inactive: 0.22
29 | GTTGCAAC | inactive: 0.0757
30 | CATAGGCC | inactive: -0.0635
31 | AGACCAAC | inactive: -0.0292
32 | CAAGGATG | inactive: 0.0179
33 | CTTGGCGA | inactive: -0.216
34 | AAGAGCTA | inactive: 0.0416
35 | ACTCGCCC | inactive: -0.233
36 | GGCTCAAA | inactive: -0.124
37 | CCAACCTC | inactive: -0.0872
38 | AAAAATAT | ≥ 0.166
39 | GCGATCAC | inactive: -0.0434
40 | CGTTCACC | inactive: -0.0587
41 | AAAACGTA | inactive: 0.0479
42 | CTAGGATA | inactive: 0.0173
43 | ACGCTATG | inactive: 0.00658
44 | CCATTCCC | inactive: -0.157
45 | CGTGAACG | inactive: -0.0689
46 | ATAAATTG | ≥ 0.199
47 | GCTTTAAC | inactive: 0.015
48 | ATTGATTG | inactive: 0.125
49 | AATACGTG | inactive: 0.223
50 | GACGGATC | inactive: -0.0286

Row | Sequence | PBM E-score
51 | AAAACATA | inactive: 0.284
52 | AGTATCTC | inactive: 0.0637
53 | GACTTTGC | inactive: -0.0963
54 | GAGAGAAA | inactive: -0.124
55 | CCCGCGCG | inactive: -0.169
56 | CGGGTGAA | inactive: -0.0575
57 | GGCCGGAC | inactive: -0.252
58 | GCCAGCTA | inactive: -0.0722
59 | AGTCCGGG | inactive: -0.154
60 | CTGCCTAC | inactive: -0.061
61 | CGTCGCCA | inactive: -0.127
62 | ATCCAGGG | inactive: -0.216
63 | TAACCGTA | inactive: 0.0558
64 | GGACCCAA | inactive: -0.179
65 | GCTATTCA | inactive: 0.115
66 | TTGTAAAA | inactive: 0.275
67 | ACATCGAG | inactive: 0.186
68 | GCGTTAAC | inactive: -0.0237
69 | CTTTATGC | inactive: -0.0282
70 | CCCAGTAA | inactive: -0.0251
71 | TCGAAGAA | inactive: -0.0229
72 | ACAGAAAT | inactive: 0.136
73 | ACCAGAAA | inactive: 0.0723
74 | AGGCTCAT | inactive: -0.134
75 | ACTATCTG | inactive: 0.0766

Row | Sequence | PBM E-score
76 | AAGTGCAT | ≥ 0.145
77 | CCCTCCAA | inactive: -0.198
78 | ACAAGATG | inactive: 0.293
79 | ACAAGGAG | inactive: 0.224
80 | ATTCGCAG | inactive: -0.00899
81 | AAGTTAGA | inactive: 0.14
82 | TAATCCGA | inactive: 0.0989
83 | CTTAAAAG | inactive: -0.0475
84 | CGAGATAG | inactive: -0.0896
85 | AAGCCACG | inactive: -0.154
86 | AGCGCGAG | inactive: -0.0923
87 | CCATACAC | inactive: 0.105
88 | AACGGCTG | inactive: -0.0595
89 | AAATTGGC | inactive: -0.113
90 | ATTTGTAG | inactive: 0.239
91 | GCCACACC | inactive: -0.027
92 | ATCACGTA | ≥ 0.14
93 | CCTACAAC | inactive: 0.21
94 | GCACGTCA | inactive: -0.0132
95 | AGCCGGCA | inactive: -0.239
96 | ATGATTTG | inactive: 0.0797
97 | CATGTTAG | active: 0.408
98 | ACGCGTGC | inactive: 0.0045
99 | AGGGTGGG | inactive: -0.129
100 | ACCAAAGC | inactive: -0.116

Row | Sequence | PBM E-score
101 | AGCCAACA | inactive: 0.055
102 | ATCTCAGG | inactive: -0.107
103 | AGAGCGAT | inactive: -0.0247
104 | GCATTGGC | inactive: -0.14
105 | TAGGCATA | inactive: -0.0088
106 | ACCCCTGC | inactive: -0.23
107 | GCAATGTA | inactive: 0.23
108 | CGAATTTA | inactive: 0.0927
109 | CACTTTGA | inactive: -0.0753
110 | GAGGGCCC | inactive: -0.294
111 | AAGCGCCT | inactive: -0.167
112 | CTGAGTTA | inactive: -0.0145
113 | AACCGCGG | inactive: -0.142
114 | GCCTGCCC | inactive: -0.257
115 | TATTATGA | inactive: 0.161
116 | TGGTACAA | active: 0.358
117 | ACTAATCC | inactive: 0.117
118 | CGGGAGGC | inactive: -0.33
119 | ATTGGATC | inactive: 0.0617
120 | GTCCGAGA | inactive: -0.00764
121 | ATATTCGC | inactive: 0.0752
122 | AAGGGGAT | inactive: -0.0483
123 | AAGAACAT | active: 0.357
124 | CAAAGTTG | inactive: 0.0254
125 | CACATCGA | inactive: 0.0459

Row | Sequence | PBM E-score
126 | AGTCTTGG | inactive: 0.0554
127 | CATTGGCA | inactive: 0.0801
128 | GGCCAAAC | inactive: -0.106
129 | CGGCTAGC | inactive: -0.224
130 | TCCCCGCA | inactive: -0.2
131 | AACTCACT | inactive: -0.0511
132 | AGCGATAC | inactive: 0.0511
133 | CAGATAGG | inactive: -0.0313
134 | AAGTCGAT | inactive: -0.0278
135 | AAATCTCC | inactive: -0.164
136 | CAGAAAAG | inactive: 0.0295
137 | CTGAATAC | inactive: 0.12
138 | TCATGCAA | inactive: 0.146
139 | CCACACTA | inactive: 0.0174
140 | CCTATGTC | inactive: 0.176
141 | AGCCCCAA | inactive: -0.246
142 | ACTCATCT | inactive: 0.0808
143 | GATACCCC | inactive: -0.113
144 | CAATTCGG | inactive: 0.014
145 | CTGGAGAA | inactive: -0.12
146 | AATCCAGC | inactive: -0.0594
147 | CCCCCTAG | inactive: -0.359
148 | AACTGTTC | inactive: 0.0453
149 | ACGCGCAG | inactive: -0.193
150 | GAAATCGC | inactive: -0.0881

Row | Sequence | PBM E-score
151 | ACGCGCCT | inactive: -0.159
152 | GTGCGGGA | inactive: -0.0919
153 | CAAATAAA | inactive: 0.108
154 | AAGCGGTG | inactive: -0.108
155 | CCTCAAGC | inactive: -0.28
156 | GGCAGGCA | inactive: -0.166
157 | GTGGACTA | inactive: 0.0435
158 | CAATAGTC | inactive: 0.146
159 | AAAACGTT | inactive: 0.0744
160 | AAGGTATT | inactive: 0.0964
161 | CCCATGAC | inactive: -0.078
162 | CCGCACGA | inactive: -0.0767
163 | ATAGCACG | inactive: 0.0747
164 | ATGTTACC | active: 0.331
165 | CTAATGAG | inactive: -0.0984
166 | GTGATCAA | ≥ 0.19
167 | AGTGCGCG | inactive: -0.172
168 | TTCGTAAA | inactive: 0.0388
169 | AGGGAGCA | inactive: -0.154
170 | AGCATTGA | inactive: 0.0229
171 | ACACAACT | inactive: 0.243
172 | AGCTCATA | inactive: 0.00166
173 | CGTGACCA | ≥ 0.0132
174 | GCCTAGCC | inactive: -0.245
175 | AAGAGGCG | inactive: -0.0927

Row | Sequence | PBM E-score
176 | AAGCACTT | inactive: 0.0786
177 | AGAGCCAC | inactive: -0.0889
178 | CTGTAGGA | inactive: -0.0496
179 | GCCCGTGA | inactive: -0.187
180 | CCTAGATA | inactive: 0.00054
181 | CGGTAACA | inactive: 0.243
182 | AATAGTCG | inactive: 0.0512
183 | GCGAGCCC | inactive: -0.217
184 | AATTCTCC | inactive: -0.0184
185 | CATGAACA | active: 0.32
186 | CACGACAG | inactive: 0.132
187 | GCCTATTA | inactive: 0.0818
188 | CCCTGGAC | inactive: -0.0977
189 | CACATATA | inactive: 0.251
190 | CATTGATA | inactive: 0.0779
191 | TGAAGTCA | inactive: -0.00071
192 | ACAGACGT | inactive: 0.154
193 | GCCACCCC | inactive: -0.221
194 | AATGGTTG | inactive: 0.0268
195 | AATATTGG | inactive: 0.0704
196 | CGGATGCC | inactive: -0.0989
197 | AAAACGAA | inactive: 0.0391
198 | AGCCCGTC | inactive: -0.219
199 | GAACGGAA | inactive: -0.0137
200 | CAAATGAG | inactive: -0.00325

Row | Sequence | PBM E-score
201 | ACCGGAAT | inactive: -0.0553
202 | GATAGAGA | inactive: -0.0737
203 | CGTTAGAC | inactive: -0.112
204 | ATTCGCAC | inactive: -0.00832
205 | CAAACTCG | inactive: -0.0882
206 | AGGCCGCG | inactive: -0.201
207 | AGTATGAG | inactive: 0.0814
208 | ATCGAAAG | inactive: 0.0469
209 | GGTGCACA | inactive: -0.0712
210 | AAACATTT | inactive: 0.252
211 | AAGACAGA | inactive: 0.12
212 | AGGTGCGG | inactive: -0.136
213 | TATATAGA | inactive: 0.158
214 | CTTAAGGA | inactive: 0.00395
215 | ACGTGGCG | inactive: -0.111
216 | ATGCTCTC | inactive: 0.0532
217 | GTTCGAAC | inactive: 0.159
218 | ACCTCGCT | inactive: -0.0751
219 | AGTCGAAG | inactive: -0.0241
220 | ATACCCGC | inactive: 0.0153
221 | CTACGGGA | inactive: -0.0503
222 | CAACAGGA | inactive: 0.0881
223 | AATAACAG | inactive: 0.241
224 | AGGAACCC | inactive: -0.0815
